This note sets out measurements from PubChem BioAssay AID1240 (Sanford-Burnham Center for Chemical Genomics, 2008).

The campaign covered roughly 50,000 compounds. About 800 (1.6%) showed an effect of 50% or more. The list shows a part of the results.

For this experiment, the target named is Bcl-2-like protein 10 (Homo sapiens) (UniProt Q9HD36). As to the kind of experiment: TR3 peptide-Bcl-B binding displacers, biochemical primary FP assay, phenotype converters (AID 1240).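 Also: 0% = Bcl-B with tracer peptide and DMSO and 100% = tracer peptide lacking Bcl-B.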 As to conditions: GST-Bcl-B / FITC-TR3 peptide fluorescence polarization; stronger effect = higher value; compound at 3.75 mg/L. (In general: Polarisation of emitted light reports the rotation of a fluorescent probe.)
Sequence of UniProt Q9HD36 (Q9HD36 whole entry, looked up): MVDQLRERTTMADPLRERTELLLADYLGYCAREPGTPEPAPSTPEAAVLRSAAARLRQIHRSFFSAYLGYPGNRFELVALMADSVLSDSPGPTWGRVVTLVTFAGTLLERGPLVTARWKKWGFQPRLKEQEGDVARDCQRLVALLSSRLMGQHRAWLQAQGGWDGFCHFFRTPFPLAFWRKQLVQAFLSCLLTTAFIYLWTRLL
As for `O=P(O)(CP(=O)(O)c1ccccc1)c1ccccc1`, the displacement stood at 14.1%.
Under `CCOC(=O)C1=C(O)/C(=C/c2cccnc2)SC1=Nc1cccc(Cl)c1` stands 2.1%.
The figure for `COc1cc(NC(=O)CCN2C(=O)c3ccccc3C2=O)c(OC)cc1Cl` is -3.4%; for `O=C(NCc1ccccc1)c1ccc2c(c1)OCCO2` it is -9%.
The figure for `Brc1ccc(OCCOc2ccc(/C=N/n3cnnc3)cc2)cc1` is -10.8%; for `CCCCc1ccc(CCCCC(=O)O)s1` it is -5.1%; for `COc1ccc2ccccc2c1-c1nnc2ccc(C(F)(F)F)cn12` it is 19.1%.
For `Cc1ccc(-n2c(C)cc(/C=N/NC(=O)c3cccnc3)c2C)cc1C`, the displacement was -27%.
The figure for `CCOc1ccc(NC(=O)CN(c2ccc(C)cc2)S(C)(=O)=O)cc1` is 4.2%; for `CN(C)c1ccc(/C=N/n2cnc3sc4c(c3c2=O)CCCC4)cc1` it is 2.6%.
Under `CC(=O)Nc1cc(-c2ccc(C)cc2)[nH]n1` stands 9%.
The figure for `CCOC(=O)c1ccc(NC(=O)CN(c2ccccc2CC)S(C)(=O)=O)cc1` is 2.7%; for `O=C(NCCCn1ccnc1)c1cccc([N+](=O)[O-])c1` it is 9%.
As to `CC(CCC(=O)Nc1nc2ccccc2s1)CC(=O)Nc1nc2ccccc2s1` (stereo not given), the displacement is 4.4%.
In the case of `COc1cc(/C=C2/C(=O)N(c3ccc(Cl)c(Cl)c3)N=C2C)ccc1OC(C)=O`, the displacement was 10.1%.
On to `Cc1ccc(C(=O)N2CCN(c3ccccc3)CC2)o1`, for which the displacement came to 5.1%.
Under `CNC(=O)C(=O)NCCN1CCN(C(=O)c2cccc([N+](=O)[O-])c2)CC1` stands -7.9%; under `CC1=C(C(=O)OCc2ccccc2)C(c2ccc([N+](=O)[O-])cc2)CC(=O)N1` (stereo not given), -16.1%.
As for `CCOC(=O)c1ccc(NC(=S)NC(=O)c2ccc(Cl)cc2)cc1`, the displacement amounted to 35.9%.
The figure for `CCc1ccc(N2CC(C(=O)Nc3ccc(I)cc3)CC2=O)cc1` (stereo not given) is -10.7%; for `COC(=O)CN1C(=O)Nc2ccc(Br)cc2C1c1ccccc1Cl` (stereo not given) it is -19.8%.
Under `COc1ccc(CN2CCN(C(=O)c3ccccc3)CC2)c(OC)c1OC` stands -1.5%.
The figure for `COc1cc(/C=C2\SC(=S)N(Cc3ccccc3)C2=O)cc(Br)c1O` is -51%; for `COc1cc(C(=O)Oc2cccc(C(=S)N3CCOCC3)c2)cc(OC)c1OC` it is -11.2%.
Regarding `CC1(C)CC(N=C(c2ccccc2)c2ccc(O)cc2O)CC(C)(C)N1`, the displacement stood at 17.4%.
`O=C(O)c1ccc(NC(=O)c2cccs2)c(NC(=O)c2cccs2)c1`: the displacement is -15.1%.
The figure for `COc1cccc(N2C(=O)NC(=O)/C(=C/c3ccc(Br)s3)C2=O)c1` is -28.2%.
The figure for `c1ccc(CCCNCCc2ccc3c(c2)OCO3)cc1` is -13.9%; for `COc1ccc(CCN(C(=O)c2ccccc2)C2=CC3CCC(C2)N3C)cc1OC` (stereo not given) it is -5.3%; for `O=[N+]([O-])c1ccc(N2CCN(S(=O)(=O)c3ccc(Cl)cc3)CC2)c(C(F)(F)F)c1` it is 8.3%.
